Measured values published in paper PMC4336329 (PLoS ONE, 2015).
About 14,000 (4.5%) of roughly 310,000 compounds showed an effect of 50% or more. The effect is printed as a negative number. This is one part of the list.

target: human ether-à-go-go-related gene (hERG) potassium channel (human, UniProt Q12809); assay: primary screen, population patch clamp on CHO cells stably expressing hERG
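Also: peak tail current of the secondary pulse compared with the same well before compound.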

Chain of human ether-à-go-go-related gene (hERG) potassium channel (Q12809 whole entry, looked up): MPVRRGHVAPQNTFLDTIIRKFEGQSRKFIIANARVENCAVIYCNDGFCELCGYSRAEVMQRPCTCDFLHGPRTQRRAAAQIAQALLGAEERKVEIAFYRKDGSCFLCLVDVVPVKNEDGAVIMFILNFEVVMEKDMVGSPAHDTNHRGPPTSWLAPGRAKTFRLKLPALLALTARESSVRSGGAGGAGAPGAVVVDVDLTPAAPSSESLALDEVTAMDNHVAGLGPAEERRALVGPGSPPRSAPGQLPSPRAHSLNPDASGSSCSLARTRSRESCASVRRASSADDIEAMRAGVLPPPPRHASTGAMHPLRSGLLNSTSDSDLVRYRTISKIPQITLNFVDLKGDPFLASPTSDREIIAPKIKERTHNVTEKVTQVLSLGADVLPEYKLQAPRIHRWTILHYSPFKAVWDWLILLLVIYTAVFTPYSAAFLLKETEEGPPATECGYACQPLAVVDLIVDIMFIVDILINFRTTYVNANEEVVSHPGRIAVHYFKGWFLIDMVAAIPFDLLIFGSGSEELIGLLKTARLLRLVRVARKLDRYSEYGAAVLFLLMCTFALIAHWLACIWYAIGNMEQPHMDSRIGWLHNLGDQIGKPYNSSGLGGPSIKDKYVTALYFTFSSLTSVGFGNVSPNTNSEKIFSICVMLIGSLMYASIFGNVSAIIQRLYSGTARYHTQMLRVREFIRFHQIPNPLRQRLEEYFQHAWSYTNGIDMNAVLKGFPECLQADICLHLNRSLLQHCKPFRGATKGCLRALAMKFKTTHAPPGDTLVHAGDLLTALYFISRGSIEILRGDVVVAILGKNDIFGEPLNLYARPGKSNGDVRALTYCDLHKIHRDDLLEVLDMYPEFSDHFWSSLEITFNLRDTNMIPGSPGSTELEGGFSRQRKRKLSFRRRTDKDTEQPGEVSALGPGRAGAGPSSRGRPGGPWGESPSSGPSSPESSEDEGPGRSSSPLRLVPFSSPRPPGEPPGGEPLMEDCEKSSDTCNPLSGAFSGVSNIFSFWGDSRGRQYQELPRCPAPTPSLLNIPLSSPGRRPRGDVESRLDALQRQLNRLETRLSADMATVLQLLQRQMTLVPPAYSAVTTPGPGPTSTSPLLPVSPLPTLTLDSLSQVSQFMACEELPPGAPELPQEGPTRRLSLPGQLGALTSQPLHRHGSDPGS

Row | SMILES | hERG current change (%, negative = inhibition) at 10uM [%]
1 | COc1ccc(C=C2C(=O)OC(C)(C)OC2=O)cc1OC | 20.2
2 | CCCC(=O)OCCNc1cc(SCCC(=O)OC)c2nonc2c1[N+](=O)[O-] | -25.9
3 | O=C(C1CCCCC1)N1CCC(n2nnc3ccccc32)CC1 | -10.9
4 | Cc1cccc(NC(=S)NCCc2ccccc2)c1C | -11.8
5 | C/C(=N\Nc1nc(N2CCCCCC2)nc(N2CCCCCC2)n1)c1ccccc1 | 10.4
6 | CC(/C=C/c1ccc(C)o1)=C\C(=O)O | 11.6
7 | CCOc1ccccc1NC(=O)CSc1nnc(Cn2c(=O)sc3ccccc32)n1C | -61.9
8 | Cc1cc(=O)oc(C)c1C(=O)N1CCN(C(c2ccccc2)c2ccccc2)CC1 | -28.2
9 | c1csc(-c2nnc(COc3ccc4c(c3)OCO4)o2)c1 | -2.91
10 | C=CCNC(=O)c1ccccc1NS(=O)(=O)c1ccc(OC)c(C(=O)N2CCOCC2)c1 | 18.4
11 | Cc1c(Oc2ccc(C(F)(F)F)cc2[N+](=O)[O-])ccc2c3c(c(=O)oc12)CCC3 | -0.903
12 | CC1CS(=O)(=O)CCN1N=Cc1ccc([N+](=O)[O-])o1 (stereo not shown) | -2.66
13 | CC(C(=O)Nc1cccc(S(=O)(=O)N2CCOCC2)c1)N1CCN(C/C=C/c2ccccc2)CC1 (stereo not shown) | -75
14 | C#CCn1cccc(C(=O)Nc2ccc(OC)cc2)c1=O | -0.236
15 | COc1ccc(CCNC(=O)c2ccc(CNS(=O)(=O)c3cccc(Cl)c3)cc2)cc1OC | -16.4
16 | O=C(COC(=O)C(Cc1ccccc1)NC(=O)c1ccco1)NC1CC1 (stereo not shown) | 5.59
17 | COc1cc(C2C(C(=O)c3ccco3)=C(O)C(=O)N2Cc2ccccc2)ccc1O (stereo not shown) | 19.1
18 | N#Cc1cc2c(nc1SCC(O)CS(=O)(=O)Cc1ccccc1)CCCC2 (stereo not shown) | -35.9
19 | Cc1ccc(C(=O)COC(=O)CNC(=O)c2ccccc2)s1 | 1.41
20 | COc1cc(CCC(=O)Nc2c(C(=O)N3CCN(c4ccccc4OC)CC3)oc3ccccc23)on1 | -5.8
21 | COc1ccc(S(=O)(=O)N2CCCCCC2)cc1C(=O)N(C)Cc1ccccc1F | -53.2
22 | O=S1(=O)CCO[C@H]2Cc3ccccc3[C@H]2N1Cc1cccc(F)c1 | -22.1

Row | SMILES | hERG current change (%, negative = inhibition) at 10uM [%]
23 | Nn1c(COc2ccccc2)nnc1SC(F)F | 1.8
24 | O=C(NCc1ccc(/C=c2\sc3n(c2=O)CCN=3)o1)C(=O)Nc1ccccc1 | 7.82
25 | CCC1(c2ccccc2)NC(=O)N(CC(=O)NC2(C#N)CCCCC2)C1=O (stereo not shown) | 2.94
26 | COc1ccc2nc(N3C(=O)C(O)=C(C(=O)c4ccco4)C3c3ccccc3OC)sc2c1 (stereo not shown) | 13.1
27 | C#CCNC(=O)C1=C[C@@H](c2csc3ccccc23)C[C@@H](OCc2ccc(CO)cc2)O1 | -13.2
28 | Cc1ccc(NC(=O)c2ccccc2)cc1OC(=O)c1ccccc1 | 15.2
29 | COc1cccc(NC(=S)N(CCCN2CCCC(C)C2)Cc2cccs2)c1 (stereo not shown) | -67.4
30 | C/C=C/c1ccccc1OCc1ccc(C(=O)OC)o1 | 1.46
31 | COc1ccc(S(=O)(=O)N2CCCCCC2)cc1C(=O)N(C)CC(=O)Nc1c(Cl)cccc1Cl | -28.1
32 | CCc1nn2c(=O)cc(COC(=O)c3ccc(SC)cc3OC)nc2s1 | -18.7
33 | CCCCc1ccc(NC(=O)COc2ccc(C(=O)Nc3ccccc3OCC)cc2)cc1 | 12
34 | CCC(Cc1ccccc1)NC(=O)C1CCN(c2nn3c(=O)cc(C)nc3s2)CC1 (stereo not shown) | -18.8
35 | COc1cccc(NCc2cc(=O)oc3cc(C)c(C(C)C)cc23)c1 | 16.4
36 | COc1ccccc1N1CCN(Cc2c[nH]c3ccccc23)CC1 | -55.8
37 | Cc1ccc2c(C)c(C(=O)Nc3ccc(S(=O)(=O)Nc4onc(C)c4C)cc3)oc2c1 | -2.03
38 | Nn1c(Cc2ccc(F)cc2)n[nH]c1=S | 16.5
39 | CCOc1ccc(-c2nnn(CCC#N)n2)cc1OC | 15.2
40 | O=Cc1cc(N=Nc2ccc(S(=O)(=O)[O-])cc2)ccc1O.[Na+] | 36.1
41 | c1cc2c(cc1C1CCCCC1)c1c3n2CCN=C3CCC1 | -33.9
42 | CC(=O)c1ccc(NC(=O)Nc2ccc([N+](=O)[O-])cc2C)cc1 | -13.3
43 | NC(=S)N=Nc1c(O)n(Cc2ccc(F)cc2)c2ccccc12 | 12.4
44 | COCCn1c(C)cc(/C=C2\NC(=S)N(C)C2=O)c1C | 6.01

Row | SMILES | hERG current change (%, negative = inhibition) at 10uM [%]
45 | COc1ccc(C(=O)CNc2ccccc2C#N)cc1 | 28.1
46 | COc1cc(SC)ccc1C(=O)Nc1ccccc1C#N | 3.84
47 | COc1cc(/C=N/NC(=O)c2cc3ccccc3cc2O)ccc1OCCN1CCCCC1 | -65.9
48 | O=C(CSc1ccc(Cl)cc1)OCc1nnc(-c2ccccc2)o1 | 5.33
49 | CC(N=c1ccccn1C(=O)Nc1cccc(C(F)(F)F)c1)c1ccco1 (stereo not shown) | -2.34
50 | COc1ccc(CC(C)NC2CCCCCC2)cc1 (stereo not shown) | 2.9
51 | O=C(/C=C\Nc1ccc(Cl)cn1)c1ccc(Br)cc1 | 4.41
52 | COc1ccccc1CC(=O)Nc1ccc(NC(=O)c2cccs2)cc1 | 0.16
53 | C#CCNC(=O)C1=C[C@@H](c2ccccc2)[C@H](CCCO)[C@@H](OCC)O1 | 13.3
54 | CC(/C=C/c1ccccc1)=N/NC(=O)C(O)c1ccccc1 (stereo not shown) | 42.9
55 | Cc1ccc2nc(SCC(=O)N3CCN(c4ccccc4)CC3)[nH]c2c1 | 1.42
56 | CC(C)C(=O)Nc1nnc(NC(=S)Nc2ccccc2)s1 | 7.63
57 | O=C(c1cc2sccc2n1Cc1ccccc1)N1CCN(c2nc3ccccc3s2)CC1 | -17
58 | N#C/C(=C\c1cn(CC(=O)O)c2ccccc12)C(=O)NCc1ccccc1 | 12
59 | CCC(=O)Nc1ccc(/C(C)=N\NC(=O)c2ccc(C)s2)cc1 | 5.93
60 | CC(=O)Nc1cccc(/C(C)=N/Nc2nc3ccccc3s2)c1 | 2.1
61 | CCCN1CCN(C(=O)Nc2ccc(OCC)cc2)CC1 | -1.93
62 | Cl.Clc1cccc(OCCn2ccnc2)c1 | 10.2
63 | COc1ccc(C(=O)Nc2cc3c(cc2Cl)OCCCO3)cc1 | 8.27
64 | O=C(NCCNC(=O)c1cc(Cl)ccc1Cl)c1ccco1 | -32
65 | COc1cc(C(c2oc(CO)cc(=O)c2O)c2oc(CO)cc(=O)c2O)cc(OC)c1OC | 24.9
66 | O=C(Nc1cccc(Cl)c1)Nc1ccc2c(c1)C(=O)OC2 | 3.43

Row | SMILES | hERG current change (%, negative = inhibition) at 10uM [%]
67 | CCC1(CC)C(=O)NC(=Nc2cccc(C(F)(F)F)c2)NC1=O | 5.57
68 | CCn1cc(C(=O)NCCCOC(C)C)c(=O)c2cc(S(=O)(=O)N3CCOCC3)ccc21 | -7.88
69 | CCN(CC)S(=O)(=O)c1ccc(Cl)c(NC(=O)COc2ccc(OC)cc2)c1 | 16.4
70 | Cl.O=C(Oc1cccc2cccnc12)c1cccs1 | -2.13
71 | Cc1cccc(CSc2nc3c(c(=O)[nH]2)CCCC3)c1 | 5.48
72 | O=C(Cn1ncc2c3ccccc3n(Cc3ccccc3)c2c1=O)NCc1ccco1 | 4.65
73 | Cc1ccc(C(C)NC(=O)c2cccnc2)cc1 (stereo not shown) | 11.2
74 | C#CC1(OC(=O)c2ccccc2)CC(C)N(C)CC1C.Cl (stereo not shown) | 4.84
75 | Cc1cc([N+](=O)[O-])nn1Cc1noc(C(=O)NCCCn2ccnc2)n1 | 4.61
76 | COCCN(CCOC)Cc1c(O)ccc2c1O/C(=C\c1ccc(C)o1)C2=O | 23.1
77 | COc1cccc(OC)c1C(=O)NC(=S)Nc1ccc(S(=O)(=O)Nc2nccs2)cc1 | 14.6
78 | COc1ccc(N2CCN(S(=O)(=O)CCNC(=O)C34CC5CC(CC(C5)C3)C4)CC2)cc1 | 8.8
79 | COc1ccccc1N(CC(=O)Nc1c(C)cccc1C)S(C)(=O)=O | -5.4
80 | Cc1ccc(SCCCCN2C(=O)NC(C)(C)C2=O)cc1 | -2.85
81 | COc1cc2c(C(=O)NCc3ccc4c(c3)OCO4)cn(CC(C)C)c(=O)c2cc1OC | 7.61
82 | COCOc1ccc(C=O)c(OCOC)c1 | 7.05
83 | CC(C)Cn1c(CN2CCCCC2C)nc2c1c(=O)n(C)c(=O)n2C (stereo not shown) | 12.7
84 | COc1ccc(-c2nc(N3CCC(C)CC3)[nH]c(=O)c2C#N)cc1 | 1.99
85 | CCOC(=O)Cn1nc(C)c(NC(=O)COc2ccccc2[N+](=O)[O-])c1C | 24.7
86 | N#Cc1nc(COc2ccccc2)oc1N1CCN(c2cccc(Cl)c2)CC1 | 4.52
87 | CSc1ccccc1NC(=O)N1CCC(CO)(CC2CCCCO2)CC1 (stereo not shown) | 18.6
88 | CSCC[C@H](NC(=O)C1CCN(C(=O)[C@@H](N)Cc2ccccc2)CC1)C(=O)O | 10.8
